Experimental data reported in US20200181277A1 (Genmab, published 2020).

Assays:
[1] = target: T1, purified human C1q (human, UniProt P02745; P02746; P02747); test: C1q binding ELISA (Example 6): plate coated with 1 µg/mL antibody, purified C1q titrated; SD 6.1, n 3
T1 construct: Purified C1q, Quidel Cat # A400; multimer of A, B and C chains

[2] = target: T1, purified human C1q; test: C1q binding ELISA: plate coated with 1 µg/mL antibody, purified C1q titrated 0.010-30 µg/mL; SD 12.6, n 6

EC50 [1]: 15.4 µg/mL
EC50 [2]: 20.7 µg/mL
B1: IgG1-hDR5-01-G56T-E430G (antibody)
heavy: EVQLQQSGAEVVKPGASVKLSCKASGFNIKDTFIHWVKQAPGQGLEWIGRIDPANTNTKYDPKFQGKATITTDTSSNTAYMELSSLRSEDTAVYYCVRGLYTYYFDYWGQGTLVTVSSASTKGPSVFPLAPSSKSTSGGTAALGCLVKDYFPEPVTVSWNSGALTSGVHTFPAVLQSSGLYSLSSVVTVPSSSLGTQTYICNVNHKPSNTKVDKRV[human IgG1 Fc with E430G (EU numbers) left out]
light: EIVMTQSPATLSVSPGERATLSCRASQSISNNLHWYQQKPGQAPRLLIKFASQSITGIPARFSGSGSGTEFTLTISSLQSEDFAVYYCQQGNSWPYTFGQGTKLEIKRTVAAPSVFIFPPSDEQLKSGTASVVCLLNNFYPREAKVQWKVDNALQSGNSQESVTEQDSKDSTYSLSSTLTLSKADYEKHKVYACEVTHQGLSSPVTKSFNRGEC
notes: IgG1,kappa; also called IgG-hDR5-01-G56T-E430G
